Laboratory results as given in the supplement of paper PMC11417369.
Some of the results follow.

Test system: PfHDP1 homeodomain (GST-tagged)
Experiment: gcPBM binding intensity (ln(normalized median fluorescence intensity)); higher = stronger DNA binding
Summary of the method: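 GST-tagged P. falciparum DNA-binding domains produced in E. coli were incubated for 1 h on an Agilent 4 × 180k array of primer-extended double-stranded 36-bp intergenic genomic probes with negative controls. Binding intensity is the highest Masliner-normalised natural-log median intensity across replicate spots of either probe orientation, with bound protein detected by Alexa488 anti-GST antibody at 488 nm.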

Row | Sequence | gcPBM binding intensity (ln)
1 | ATAAATTAACATTAAAGTACATTTTAATAAATATTA [XGTACX_site3647] | 5.78
2 | ATACATATATATAATACACACATAAATGTAACATTT [CACACA_site3518] | 7.02
3 | CCATAAAACTATAATACACACATATAGATTAACATA [CACACA_site7849] | 6.54
4 | AAAATTGGTGAAAATGAAAATATGATTATATGTATA [XGTACX_negctrl_site505] | 6.29
5 | TGATAAGAAAAAGACTTTTCCTTCTTACTTTCTATG [CACACA_negctrl_site782] | 5.83
6 | AATAATGTTTTTATATCACACACAAATATTAAATGA [CACACA_site8074] | 6.39
7 | CAAAATAAATAATTTGGTACACATAAAAAAAAAAAA [XGTACX_site8380] | 6.26
8 | TGCTGTATATTTTTCTGTACACATTTATATATTCCA [XGTACX_site6244] | 6.65
9 | TTTTTTTTTCTTCTTTTCAAATTTAAGAAATTATAA [CACACA_negctrl_site18] | 5.91
10 | AAAGGGAATTATGGCTGTACGCATTTTATAAATAGC [XGTACX_site5878] | 6.21
11 | TTGTTATTATATTACGCATGCATCATTTATTTGCAC [TGCATGCA_site525] | 7.81
12 | AAGAATAAGAAGAAGGATCCCCTTCAAAAAAAAAAA [TGCATGCA_negctrl_site525] | 5.87
13 | ATGAAGAATTTATATTGTACCCATTTTTATGTAAAT [XGTACX_site2528] | 6.55
14 | AAAAAAAAAACATACACACATACATACATATATATT [CACACA_site949] | 6.49
15 | CGAAAAAGTGATATAGTGCAAAATTTTCATTTCTCT | 9
16 | ATATGTATGTATAATCGTACAAAATTTGGCGATCTT [XGTACX_site8698] | 6.21
17 | TTTATATGTATTAATTGTACACATATAATGTGTTTT [XGTACX_site3064] | 6.59
18 | TTTTTTTTAAAACTATGTACGTAAAAATTGTAGTTT [XGTACX_site2302] | 6.6
19 | GATATAATTATGTGTACACAATTTTTTTTTTTTTTT [CACACA_site4501] | 6.77
20 | AAATAAAGGAAATAAAAAGAAACCAATTTCGAATAT [CACACA_negctrl_site953] | 6.46
21 | AGAACTTTTAATGGATGTACAGTTATTTTATTATTT [XGTACX_site6226] | 6.12
22 | ATATAGTAAATTGGTAGTACATAAAATGATTTTATG [XGTACX_site4143] | 6.38
23 | AACAGATAAAAGGGTACACACATATATACAAGTACA [CACACA_site7959] | 6.45

Row | Sequence | gcPBM binding intensity (ln)
24 | TATATAGATATGATAGTGCATTTTTAGAAAACATAA [GTGCAC_site9962] | 7.95
25 | TTATGTAGCTAGCTATAAACTTTTTTTTATTTAAAA [CACACA_negctrl_site1297] | 5.87
26 | ATTATTATTAAATACACACACATACCTCCATGTTAG [CACACA_site3430] | 6.94
27 | ATATATATATATATATGTACATACTATACAATAATT [XGTACX_site3546] | 9.34
28 | ATGCTTTTATGCACACGTACAAAAATATTATATAAT [XGTACX_site5589] | 10.9
29 | ATAATTTTATCATATATATATATATATAAATACTTA [CACACA_negctrl_site743] | 6.65
30 | AAAAATTGAATTTTTTTTTTTTTTTTGAGAAGGAAA [CACACA_negctrl_site1196] | 6.45
31 | AATAATAAAGTGAACACACACATATAATATATATAT [CACACA_site4143] | 8.07
32 | ATAATTAAAATGCTCACACACATAAAAAAAAATTAA [CACACA_site2149] | 8.24
33 | CAAACAAACGAACACACACACACACGCAAAAATGAT [CACACA_site7194] | 6.9
34 | AATATTTTTGTCGTTAGTACATAAAAAATAATAATA [XGTACX_site3074] | 6.1
35 | GAAATTATTATATAAACACACATTTATTTTATTTTA [CACACA_site1957] | 6.24
36 | GTATTATACCATAATGCATGTTAACTTCAAAAGAAA [TGCATGCA_site839] | 6.5
37 | TAATATATTGTAGATGCATGCATTAACTATTACAAA [TGCATGCA_site190] | 6.51
38 | CGTATAAATAAATACACACACATATAAATATGTAAA [CACACA_site6236] | 6.54
39 | TATCAATGGAAAATATATATTTGTATATATGTAATA [XGTACX_negctrl_site257] | 6.53
40 | GGATATATTTTATGTACACACATATATAACGGATAT [CACACA_site4847] | 6.72
41 | TTTTAAAAAAATAAATAAATAGAAAAAAAAAATAAA [TGCATGCA_negctrl_site579] | 6.27
42 | TATTATGACTTAAGTTGTACTGTTGAAAGAAGAAAA [XGTACX_site2985] | 6.67
43 | AAAAGTTATAGACACACACACATATAAATATAGATT [CACACA_site6617] | 6.64
44 | ATAAAAATTAAAGAATGTACACATATAATATATGTA [XGTACX_site8735] | 6.41
45 | TTGTTTCCTTAATATTCACACACATATATATAATAT [CACACA_site8553] | 7.2
46 | ATAATCCTTAAACACACACACACACTAATAAATAAA [CACACA_site8052] | 7.08

Row | Sequence | gcPBM binding intensity (ln)
47 | TATAAATGTATACAAGTGCATATTATTCACACATAA | 8.59
48 | TAAAATTTTTTTGTTTGTACATATATATATATAATA [XGTACX_site5609] | 6.87
49 | TATATATTATACACGTGTACACATTATAACAATATA [XGTACX_site7799] | 6.82
50 | TTTCCCTTAAATTAATGTACATAAATTGAAAATACC [XGTACX_site1602] | 6.63
51 | TTGCCCCAGGAGTTCACACACATAATAGATTGTCAC [CACACA_site726] | 6.59
52 | AAAAAAATAAATAAATACATACATATATATATGTAT [GTGCAC_negctrl_site510] | 6.13
53 | AAAAAAAAAAAACACACACACAAAAAAAAATATATA [CACACA_site1105] | 6.47
54 | AGCAACCCCCTAGCTACACACATATAGATATATATA [CACACA_site951] | 7.23
55 | ACACATGACATCCGTTGTACAATCATCATAAAAATG [XGTACX_site5397] | 7.09
56 | AGCATTTATGAAAAATGTACACACATCAAATGCTTA [XGTACX_site8749] | 6.48
57 | TATAAAAATAATATTACACACATGTAAAATGTCGGT [CACACA_site3264] | 6.32
58 | AAGCTACACATAGATTATTATTAATTTAATGTATAT [CACACA_negctrl_site548] | 6.19
59 | TACGTGAAATTATATACACACATAAATATGTCTGTA [CACACA_site3122] | 6.39
60 | AATTATTAGCGTGGTGTGCACAAAATTATGGACACA | 9.8
61 | ACAAGCTTTCATAAGGTGCAATGATTTAACAAAAAA [GTGCAC_site9726] | 8.55
62 | AATGTAAAACTAATATGTACATATCTCTAAAGAAAT [XGTACX_site8429] | 6.63
63 | ATTGTCTTCCTTCTGGTGCGATGTATAGGTAAAGAT | 7.35
64 | CGTACTAACATAAAGACACACACCACATATAATAAA [CACACA_site3603] | 6.79
65 | TGTAGAAATGGGTGCACACACATATATAATATATAT [CACACA_site2507] | 10.7
66 | AACTCATCTTATAATTGTACATATTTATAAAAAGTA [XGTACX_site6522] | 6.38
67 | TTAGGGATGCTGAAATGTACACATTTAAATTATATA [XGTACX_site3000] | 6.73
68 | AAAAAAAAAAAAAAAAAAAAAAAAAAAAAATATATA [GTGCAC_negctrl_site6] | 7.43
69 | AGAAGAAATATGTAAAAAATTTTATATTCACACACA [GTGCAC_negctrl_site441] | 6.85

Row | Sequence | gcPBM binding intensity (ln)
70 | CCCATATTATAGGTGTGTACATAAAAGTATATATAA [XGTACX_site3629] | 6.88
71 | AATTTAATTTTTTCGTGTACTTATATAGGAGGTTTT [XGTACX_site8310] | 6.76
72 | CAATTAAAGATATGAACACACATGTGAACTTTCTAT [CACACA_site7796] | 6.53
73 | TTTCTTATCAACCTTTTTTTTTTTTTTTTATTCTTA [TGCATGCA_negctrl_site162] | 6.06
74 | TTTATATATAATGTTGCATGTCAAATTTGTATATGG [TGCATGCA_site246] | 7.66
75 | TGTTCTTATACTAATAGTACTTTTAGGTACTATAAA [XGTACX_site2954] | 6.13
76 | TGTAGACATTAATGTAGTACAATATATATATATATT [XGTACX_site8608] | 6.62
77 | ATATTTTTCCAACATCGTACATTATGAGTCAAAATT [XGTACX_site993] | 7
78 | CCATAAAAAGGTACATGTACAAAAAGCAAAAATATG [XGTACX_site5543] | 7.26
79 | TTTTTCTTTTTTTGGGGTACAGGGAAATCTATATTT [XGTACX_site7025] | 6.83
80 | TCTTAATTTTTGAAGGTACACACTAATATATTAAAT [CACACA_site1191] | 6.68
81 | AAAAAAAAAAAAAAAACACACATACCCATATATTTT [CACACA_site6013] | 6.6
82 | ATGATATGCAATTTAGTGCATAACAAAATTGGTATA | 10.5
83 | TTGTGTAAATGTTAAGTGCATTTGGTAAAATATAAA [GTGCAC_site9699] | 9.03
84 | TCTCCATCTTATGAGACATGCACTTTTTATTTAATA [TGCATGCA_site121] | 6.95
85 | GTATATATATATATATATATATATATATATATATAT [CACACA_negctrl_site609] | 9.26
86 | AAAAAATAAAAAAGGTGGTCATGTCACAAATACTTT [XGTACX_site7454] | 6.21
87 | TGTGTATACTTGTGTATACCAAATTAAAGACGCTTT [CACACA_negctrl_site1359] | 6.34
88 | TAAAAGTGATATGTTCGTACGTATTTATATGTAATA [XGTACX_site211] | 6.4
89 | AATTTAAAAGCTTGTGGTACTTTTGCTCTTCCTTTG [XGTACX_site3148] | 6.49
